# Source: the RNAGym collection of RNA variant scans (doi:10.7554/elife.90254)
# Read counts are not given, so values of variants with three or more changes are uncertain.
# B1: LINE1-mini (parent)
# chain: GGCAGAGCUCAACACAGCGUGGCAAAGUGGCUGUGGCUAGACUGCC
# Variants of: B1
# Test: self-cleavage, relative activity (ratio to wild type); higher = more cleavage; in vitro, sequencing; the parent is a self-cleaving ribozyme
row,Variant,self-cleavage
1,G2U C8G G19C,0.03
2,C3A A4C U9G G17A,0.08
3,G2U C3U G5U G7U G21A A25U,0.34
4,G2U A14U G44A,0.08
5,G2U A16C C18A,0.04
6,G2U A4U G7U U20G G27U G44C,0.22
7,G2U U20C A39C,0.02
8,G2U G30A G33U U38C,0.02
9,G2U U20G A24G C31A,0.03
10,G2U G19U A41C,0.03
11,G2U U20A G22A C23U,0.14
12,G2U A14U C45G,0.26
13,G2U G21U G27A,0.13
14,G2U U20A A24G A25U G36U,0.01
15,G2U U20A G33A U38C C42A,0
16,G2U C8A C10G,0.03
17,C3A A4G A6C C8A A14C G17C C31A G36C,0.05
18,G2U G7C C42A C46U,0.1
19,G2U C13U G27A G30U G33C,0.04
20,C3A A4U A12G C13U C31U U34C C46G,0.02
21,G2U C23G A41C U43A,0.01
22,G2U C31A A41C C46U,0
23,G2U A6G C10A C23A G27C G30A C42A,0
24,G2U A11U A14U G19U A26C,0

row,Variant,self-cleavage
1,G2U G21A U32C G35A,0.03
2,G2U A12U U34A,0.02
3,G2U C10A U28A,0.02
4,G2U G22U C23G U34A G44C,0.09
5,G2U C8U C31G G33C A39U,0.01
6,G2U C10A U32C G36U,0
7,G2U A12C G22A G29U,0.02
8,G2U A6U G7A A14C A16C G19U A26U U32A G40U,0
9,G2U A25U G40C,0.05
10,G2U U9A C13A G19A U20C,0.01
11,G2U G17C G36U A39G G44A C46A,0.03
12,G2U C3A G17U C37G,0.06
13,C3A A4G A14U C37A U43A,0.07
14,G2U C23A A26G,0.11
15,G2U C8A C23A G29A U34C C42G,0.12
16,G2U C13U G19A G22U U32C A41G,0.02
17,G2U A24G G36A G40A U43A C45U,0.02
18,G2U C13U C15U G17A A24C,0.03
19,G2U U28C U32C,0.03
20,G2U A6G A26C G27C G35A,0.27
21,G2U C3A A6C C15U G17U C31U,0.08
22,G2U A4G G21C G22C,0.02
23,G2U C3A C10G,0.04
24,C3A A4U G5A U9G G29A G36A,0.47

row,Variant,self-cleavage
1,G2U C42U G44U,0.07
2,G2U A14C G40C,0.03
3,G2U A25C C42U,0.01
4,G2U A26C C46G,0.09
5,G2U C10G A14G C15G,0.02
6,G2U C23A C37U,0.01
7,C3A A6C C8U,0.15
8,G2U A4U G5A A6C G36C,0.03
9,G2U U9A A16U,0.06
10,G2U A14G C15G G19A U20A G27C,0.01
11,G2U A16C G17A G40U,0.11
12,G2U C10A A14G A26G C37U,0
13,G2U U34C C37A,0.03
14,G2U C10A A16U U43A,0
15,G2U C3A A4G G17C C45G,0.49
16,G2U C3A C10U C18G G40A,0.01
17,G2U A14G C23A,0.07
18,G2U A11G A16C G21A A26U G33A,0.01
19,G2U A11C G19U A26G G35U,0.01
20,G2U A11U G29A,0.02
21,G2U U28A G30A U38A,0.05
22,G2U G7C A11U A25U U34A G44C,0
23,C3A A4U A6G C46A,0.08
24,G2U U9C C18G U43C,0.01

row,Variant,self-cleavage
1,G2U C23G G27C C46U,0.04
2,G2U C15U A39U,0.03
3,G2U C23A G40U,0.01
4,G2U A26U G33C,0.01
5,G2U A12C A24G U28G,0.01
6,G2U A6C C13G,0.05
7,G2U G19U A39C G44A,0.02
8,G2U A11U G22C A26G U43C C46A,0
9,G2U G17U G21A,0.01
10,G2U C8A G17A C45A,0.01
11,G2U G19A U20G,0.13
12,G2U C3U A24G,0.14
13,G2U G5U C8G U28A C31A,0.02
14,G2U C18A C23U G36A C46U,0.02
15,G2U G7C A25U U32G,0.02
16,G2U U20A A41U,0.05
17,G2U G5U C15U G22A U32A G35U,0.02
18,G2U C10U G30U U34C G35C G36A,0
19,G2U A12C A14G A26U,0.02
20,G2U C15A C42G,0
21,G2U U34G G40U,0.08
22,G2U G19A C37U,0.07
23,G2U C15U C42A,0.2
24,G2U C3A C46G,0.09

row,Variant,self-cleavage
1,G2U C8G A24G U34G,0.07
2,G2U U20C G29C,0.07
3,G2U A14C A24U,0.04
4,C3A A4C G5U G33C G36A,0.08
5,G2U C3G U9A C10G A16C,0.01
6,G2U C10A U28A G35U,0.01
7,G2U G29U G36U,0.05
8,G2U A41U G44C,0.09
9,G2U A6C A11C,0.02
10,G2U C8G G22U G27A,0.02
11,G2U G7C C13U G22U U32C C37G,0.03
12,G2U G5C A11U A26U G36U,0.02
13,G2U A11G C18U G33U,0.02
14,G2U A6C C15A G36A,0
15,G2U C15G U28G U34G,0.01
16,C3A A4U G19C G36C U43A,0.12
17,G2U C3U A25C,0.17
18,G2U C3A C8U,0.26
19,G2U A12G G22A G30C G44A,0.01
20,G2U G36A G40A G44C,0.1
21,G2U C3U U20A U43A,0.02
22,G2U A16U G21A,0.07
23,G2U A14U C31G,0.01
24,G2U A14U C31A,0.01

row,Variant,self-cleavage
1,G2U C13U G19U,0.02
2,G2U G5U A26U,0.03
3,G2U G19C G33U,0.01
4,G2U A16C G40U,0.03
5,G2U A4G G17U G21C G22A U28G G33U G40U U43G,0
6,G2U G29U C42A,0.15
7,G2U G5A A14U G35A,0.1
8,G2U A16G C37A U43A,0
9,G2U C23U U43C C46A,0.02
10,G2U A14C G36A,0
11,G2U C3G C23U A25U U28C C31A,0.09
12,C3A A6C C10U,0.2
13,C3A A4U C15A G29U G44C,0.24
14,G2U C15A G33U,0.07
15,G2U C15A G17U U20A G21U C23U,0.05
16,G2U A11G G22A G33U,0.01
17,G2U G22U G33A U43C,0.07
18,G2U C10G C15A A24U A25C A26G U28A C46G,0.01
19,C3A A4U G22A A25U G36C,0.62
20,G2U C8G U20A C37A,0.05
21,G2U C3A A25C U34G A39U,0.03
22,G2U G30A G40A,0.05
23,G2U A14U C18A G35U G36A A41C,0
24,G2U G7A U9G,0.03

row,Variant,self-cleavage
1,G2U A16G G36C U38G,0.08
2,G2U C10U G19A U20A A41C,0
3,G2U U9A A11U G17U C18A C46A,0.01
4,G2U C15U G29A G36A G44C,0.13
5,G2U C8A U20C C45A,0.01
6,G2U G22C C31A,0.02
7,G2U G5C A6U G7U C13A G19C G22A G44C,0.1
8,G2U G27C A41C U43A,0
9,G2U G29A C31A G35U C37A,0.01
10,G2U C13A G19C G27U,0.05
11,G2U C8U C46G,0.03
12,G2U G5A A12U A14G G19U U20C C23U A26U G30U,0.01
13,G2U C15U A26G C42U,0.09
14,G2U U9A C18G A26C,0
15,G2U G19C G29C U32G,0.06
16,G2U G5U G35U,0.02
17,G2U C15U G17A,0.02
18,C3A A4U G36A A41G,0.25
19,G2U G5A A24C A25C G33A U38G,0.01
20,G2U A11C C13A,0.03
21,G2U A6U U9G A41G,0.06
22,G2U A14U A24C,0.02
23,G2U C3A G17A,0.16
